Data as given in a collection of fitness landscapes (doi:10.1126/science.1257360).
The other results are listed elsewhere or left out.

B1: PhoQ; a variant is named by its letters at X, in order, P23837 (parent)
chain: MKKLLRLFFPLSLRVRFLLATAAVVLVLSLAYGMVALIGYSVSFDKTTFRLLRGESNLFYTLAKWENNKLHVELPENIDKQSPTMTLIYDENGQLLWAQRDVPWLMKMIQPDWLKSNGFHEIEADVNDTSLLLSGDHSIQQQLQEVREDDDDAEMTHSVAVNVYPATSRMPKLTIVVVDTIPVELKSSYMVWSWFIYVLSANLLLVIPLLWVAAWWSLRPIEALAKEVRELEEHNRELLNPATTRELTSLVRNLNRLLKSERERYDKYRTTLTDLTHSLKTPLXXLQXXLRSLRSEKMSVSDAEPVMLEQISRISQQIGYYLHRASMRGGTLLSRELHPVAPLLDNLTSALNKVYQRKGVNISLDISPEISFVGEQNDFVEVMGNVLDNACKYCLEFVEISARQTDEHLYIVVEDDGPGIPLSKREVIFDRGQRVDTLRPGQGVGLAVAREITEQYEGKIVAGESMLGGARMEVIFGRQHSAPKDE

Variants of: B1
Experiment: enrichment ratio after two sorts for PhoP signalling (ratio (wild type AVST 3.29)); higher = more functional
Settings: with PhoP (E. coli)

Row | Variant | enrichment ratio
1 | AFNW | ≤ 0.25
2 | DIFA | ≤ 0.25
3 | LCDQ | ≤ 0.25
4 | SQKK | ≤ 0.25
5 | PVGR | ≤ 0.25
6 | LQLG | 1.81
7 | KQHG | ≤ 0.25
8 | RQVC | ≤ 0.25
9 | GKWR | ≤ 0.25
10 | FHYD | ≤ 0.25
11 | RSHD | ≤ 0.25
12 | TPSE | ≤ 0.25
13 | IMHW | ≤ 0.25
14 | EAHP | ≤ 0.25
15 | RDEM | ≤ 0.25
16 | IQDI | ≤ 0.25
17 | KHIV | ≤ 0.25
18 | YWGT | ≤ 0.25
19 | LNIG | ≤ 0.25
20 | TGLA | 27.5
21 | PVSE | ≤ 0.25
22 | SHIM | 2.2
23 | FAVR | ≤ 0.25
24 | MQKY | ≤ 0.25
25 | SQLL | 12.5
26 | FAGW | ≤ 0.25

Row | Variant | enrichment ratio
27 | TTQK | ≤ 0.25
28 | EMQD | ≤ 0.25
29 | KYFD | ≤ 0.25
30 | GQEF | ≤ 0.25
31 | VFPI | ≤ 0.25
32 | DSVE | ≤ 0.25
33 | SWDS | ≤ 0.25
34 | NSGC | ≤ 0.25
35 | SFIF | ≤ 0.25
36 | EISG | ≤ 0.25
37 | MKDE | ≤ 0.25
38 | RFLS | ≤ 0.25
39 | KICQ | ≤ 0.25
40 | STKY | ≤ 0.25
41 | SRQP | ≤ 0.25
42 | MNNH | ≤ 0.25
43 | SRQH | ≤ 0.25
44 | FFFT | ≤ 0.25
45 | QQTA | ≤ 0.25
46 | IIHE | ≤ 0.25
47 | GSYM | ≤ 0.25
48 | QSKM | ≤ 0.25
49 | WFYM | ≤ 0.25
50 | LTRW | ≤ 0.25
51 | FVLR | ≤ 0.25
52 | AWFH | ≤ 0.25

Row | Variant | enrichment ratio
53 | EYMW | ≤ 0.25
54 | YASY | ≤ 0.25
55 | LNSC | ≤ 0.25
56 | KFLV | ≤ 0.25
57 | GGII | 1.19
58 | LHFM | ≤ 0.25
59 | QDLE | ≤ 0.25
60 | EYDY | ≤ 0.25
61 | YMAA | ≤ 0.25
62 | FNWN | ≤ 0.25
63 | MTGR | ≤ 0.25
64 | WRDY | ≤ 0.25
65 | LIFG | ≤ 0.25
66 | TVNE | 2.34
67 | HQYN | ≤ 0.25
68 | TFFS | ≤ 0.25
69 | HGNY | ≤ 0.25
70 | VLVK | ≤ 0.25
71 | KYVI | ≤ 0.25
72 | QELY | ≤ 0.25
73 | YLLV | ≤ 0.25
74 | DHRT | ≤ 0.25
75 | KLWG | ≤ 0.25
76 | MEQW | ≤ 0.25
77 | YLAD | ≤ 0.25
78 | QQWT | ≤ 0.25

Row | Variant | enrichment ratio
79 | DVMN | ≤ 0.25
80 | PQAI | ≤ 0.25
81 | MWVS | ≤ 0.25
82 | DCII | ≤ 0.25
83 | DSQT | ≤ 0.25
84 | EGHT | ≤ 0.25
85 | HQMV | ≤ 0.25
86 | PCVS | ≤ 0.25
87 | IVHP | ≤ 0.25
88 | ANTK | ≤ 0.25
89 | ETCR | ≤ 0.25
90 | GSNC | ≤ 0.25
91 | KINE | ≤ 0.25
92 | NNTF | ≤ 0.25
93 | LYNE | ≤ 0.25
94 | KRLI | ≤ 0.25
95 | GFCY | ≤ 0.25
96 | RMGH | ≤ 0.25
97 | SWRI | 0.665
98 | KRLH | ≤ 0.25
99 | SYPV | ≤ 0.25
100 | VGPV | ≤ 0.25
101 | GLWY | ≤ 0.25
102 | SPQR | ≤ 0.25
103 | YKPE | ≤ 0.25
104 | VHTK | ≤ 0.25

Row | Variant | enrichment ratio
105 | DEKT | ≤ 0.25
106 | ANYN | ≤ 0.25
107 | TPEI | ≤ 0.25
108 | HMPT | ≤ 0.25
109 | ALNM | ≤ 0.25
110 | SEMK | 7.11
111 | DKNQ | ≤ 0.25
112 | NHME | ≤ 0.25
113 | VPDW | ≤ 0.25
114 | NFKK | ≤ 0.25
115 | QHRI | ≤ 0.25
116 | PRAC | ≤ 0.25
117 | MRHV | ≤ 0.25
118 | HWTQ | ≤ 0.25
119 | HQPG | ≤ 0.25
120 | GKTF | ≤ 0.25
121 | SWAS | ≤ 0.25
122 | IFCN | ≤ 0.25
123 | IIEM | ≤ 0.25
124 | TRPS | ≤ 0.25
125 | SWQQ | ≤ 0.25
126 | WKFQ | ≤ 0.25
127 | MCTY | ≤ 0.25
128 | GMPG | ≤ 0.25
129 | NGIF | ≤ 0.25
130 | YKGH | ≤ 0.25

Row | Variant | enrichment ratio
131 | MSMH | 4.84
132 | SCKQ | ≤ 0.25
133 | MFCN | ≤ 0.25
134 | KGRV | ≤ 0.25
135 | YGLF | 0.466
136 | TGAY | 4.95
137 | LGYN | ≤ 0.25
138 | RHHI | ≤ 0.25
139 | WMAD | ≤ 0.25
140 | PPIQ | ≤ 0.25
141 | VMMR | ≤ 0.25
142 | ELLF | ≤ 0.25
143 | NWTR | ≤ 0.25
144 | HDYR | ≤ 0.25
145 | SMSI | 12.9
146 | NHFI | ≤ 0.25
147 | ISQK | ≤ 0.25
148 | PHCG | ≤ 0.25
149 | FGGY | ≤ 0.25
150 | STLT | 12.3
151 | LTIE | ≤ 0.25
152 | TKKA | ≤ 0.25
153 | MEPM | 2.11
